In the supplement of paper PMC3334620:
Whole data set: some 33,000 sequences, median “E-score (-0.5 to 0.5)” near -0.04, cut for the highest 2% near 0.36. The list shows a part of the results.

Biological target: T1, Hmlalpha2 (UniProt P0CY09)
T1 sequence: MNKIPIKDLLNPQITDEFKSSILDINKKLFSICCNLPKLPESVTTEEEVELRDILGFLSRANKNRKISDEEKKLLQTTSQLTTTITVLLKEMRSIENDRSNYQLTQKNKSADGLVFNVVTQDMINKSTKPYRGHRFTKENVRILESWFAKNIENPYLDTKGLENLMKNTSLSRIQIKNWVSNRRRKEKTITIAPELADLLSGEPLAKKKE
Test: PBM E-score (8-mer binding enrichment) (E-score (-0.5 to 0.5)); higher = stronger / more preferred TF binding; most listed sequences are background and not binding sites
Details: protein concentration: 200 nM; construct: GST-full length
Description: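 Universal 'all 10-mer' protein binding microarrays (Agilent AMADID 015681) probed with GST-tagged S. cerevisiae TFs (full-length or DBD) made by in vitro transcription/translation (PURExpress), about 100-200 nM. Bound TF was detected with fluorescent anti-GST. Each ungapped 8-mer (which stands for itself and its reverse complement) is scored by the PBM enrichment score (E-score), a modified Wilcoxon-Mann-Whitney statistic from -0.5 to +0.5, computed with the Universal PBM Analysis Suite. Scale: above 0.35 generally sequence-specific binding.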

| Sequence | PBM E-score |
| --- | --- |
| CGAGCTAC | -0.0354 |
| TACGGTCA | -0.0514 |
| AGGTTGCG | -0.0647 |
| ATGCGATC | 0.0321 |
| AGGACCAT | -0.212 |
| GGAGGTCA | -0.233 |
| CATTAATC | 0.123 |
| AGTCCTAC | -0.0223 |
| AAACATAC | 0.267 |
| GATCATAA | 0.0574 |
| TCGCGGCA | -0.165 |
| CCTACGGC | -0.293 |
| CACGACTG | -0.0303 |
| ACCCCTCA | -0.27 |
| AACTGTGA | 0.0641 |
| CCCGTCAG | -0.315 |
| GGAAAGTA | -0.136 |
| TCACGGGA | -0.106 |
| AGATACAT | 0.388 |
| TGACAAAA | 0.146 |
| TGCGCCCA | -0.202 |
| ACCTTCGA | -0.151 |
| GGACAACA | 0.223 |
| ACACGACT | 0.391 |
| CATCGCAA | 0.024 |

| Sequence | PBM E-score |
| --- | --- |
| GAACCTGA | -0.13 |
| CAGCTTAA | 0.136 |
| AACTTCAA | 0.183 |
| CTACGCGA | 0.277 |
| ATAAAACC | -0.12 |
| GTGAAATA | 0.185 |
| ATAAGAGA | -0.0444 |
| CATGACAG | 0.108 |
| ATACATAG | 0.415 |
| AACCAATC | 0.0359 |
| TGGACCCA | -0.124 |
| AAGCGAGC | -0.00615 |
| GGACACCC | -0.423 |
| GCAAGCGC | -0.271 |
| ACGAAAGT | -0.00393 |
| AAATGAGT | 0.1 |
| TAGTCATA | 0.0124 |
| GGAAGACA | 0.0409 |
| AATACCAT | 0.24 |
| ACTATTAG | -0.0916 |
| ACTCCGAA | -0.114 |
| AAAAGGTA | 0.126 |
| ATAAAGAA | 0.0809 |
| CACCAAAA | 0.0947 |
| CACTAGGC | -0.132 |

| Sequence | PBM E-score |
| --- | --- |
| AGGAGTGG | -0.145 |
| TCTGGTCA | -0.0252 |
| ATTCAAGC | 0.0409 |
| ACTACGGA | -0.223 |
| AACACTGC | 0.123 |
| ATCGGTAG | 0.0267 |
| ACCAGGGC | -0.106 |
| TAAGGGCA | -0.0721 |
| CAATCATA | 0.108 |
| GATAAAAC | 0.202 |
| CCGAGTCA | -0.107 |
| TACCCGGA | -0.0376 |
| AGTCAGCC | -0.2 |
| CCAATGGC | -0.212 |
| CATGAATC | 0.0618 |
| AATCGTAA | 0.132 |
| CCAGCATC | -0.187 |
| CGCTTGTC | -0.0392 |
| GAGACCGC | -0.256 |
| GTGCTGTA | 0.114 |
| CTACCCCA | -0.146 |
| CTGATCTA | -0.0126 |
| ACCGCTCT | -0.165 |
| AGCAGCGG | -0.213 |
| ATGGCTCC | 0.0615 |

| Sequence | PBM E-score |
| --- | --- |
| CCCGGTCG | -0.384 |
| GGACGACC | -0.205 |
| CAGCAACG | 0.18 |
| AGCTGAGA | -0.157 |
| AGCTAGAA | -0.0183 |
| AAACGTTC | 0.0374 |
| GAGGCTCC | -0.171 |
| TAAAGTTA | 0.242 |
| CCGCGACC | -0.289 |
| AAATTGCC | -0.0531 |
| AGCCACGC | -0.181 |
| ATAGTTTG | 0.131 |
| AAGTTCCA | -0.101 |
| CAAGGGCC | -0.151 |
| ATGCGAGG | -0.117 |
| ATGCGATA | 0.0621 |
| GCGGTTTA | 0.0488 |
| GCCTTGAA | -0.287 |
| AATCCTAG | 0.0164 |
| CCCGCAGA | -0.18 |
| TCTACACA | 0.445 |
| AAAACCCC | -0.134 |
| TCCCCCCA | -0.331 |
| CAAATGAA | 0.0294 |
| CGGTATTC | 0.0271 |

| Sequence | PBM E-score |
| --- | --- |
| AAAGTTAT | 0.209 |
| CCAGATAG | -0.176 |
| GGTATGAA | 0.0704 |
| GGGTTGCA | -0.0367 |
| CTGCGTGA | 0.0311 |
| AAGATTGC | -0.0744 |
| ATTATATC | 0.0602 |
| GAGCCCAA | -0.209 |
| CTCGAGTC | -0.178 |
| CATGCACC | 0.108 |
| ATGGAGAC | -0.149 |
| ATCTCGTA | 0.191 |
| ACGTAAGC | 0.0597 |
| AACGGAGT | 0.0457 |
| GCTAGCTA | 0.0011 |
| CGAGGTGC | -0.0496 |
| GGTTAGAA | -0.232 |
| TACTAGAA | 0.0746 |
| GGCTCTAA | -0.0554 |
| AGCAAATA | 0.0713 |
| CAAGGGTC | -0.199 |
| GCAGCTCC | -0.276 |
| CCCGCTTA | -0.116 |
| AGGTCAAG | -0.0752 |
| CGTAACGC | 0.193 |

| Sequence | PBM E-score |
| --- | --- |
| CAGCCATG | 0.14 |
| GTTGCGTA | 0.378 |
| CGAAATAC | 0.238 |
| AAGCTATA | 0.0529 |
| GGTGAAAC | -0.0316 |
| ACATGACC | 0.38 |
| GTACGAGA | 0.0653 |
| TCAGATCA | -0.0646 |
| AGTAAGAC | 0.0442 |
| GAAACTCC | -0.211 |
| CTTTTATC | -0.157 |
| CTTGTCCC | -0.12 |
| ATTTCGAA | 0.131 |
| CAGGCGAC | -0.253 |
| AGTGTGGG | -0.258 |
| AATGCTAA | -0.0251 |
| GGCGATTA | -0.0499 |
| AGCAAAGG | -0.0572 |
| ACGCAGAG | 0.0628 |
| GGTTAAGA | 0.148 |
| CTATCTGA | -0.317 |
| GCCGTCGC | -0.0824 |
| ACGCTTTA | 0.0657 |
| TAATCTGA | 0.14 |
| CAGGTCAC | -0.266 |

| Sequence | PBM E-score |
| --- | --- |
| CGATTTCC | -0.213 |
| GGCAGATA | -0.153 |
| CCCACCGA | -0.267 |
| ATCACGAT | -0.0443 |
| GTAGTACA | 0.313 |
| GGACAGGA | -0.158 |
| ACGCTAAG | -0.0342 |
| GTGTGAAA | 0.336 |
| ATCGAAGG | -0.0945 |
| ATGTGCTA | 0.0958 |
| AACTTGAG | -0.122 |
| AGTAACTC | -0.0308 |
| GTCCCACA | -0.151 |
| CATCCACA | -0.0215 |
| CGACCATC | -0.216 |
| AATTCCGG | -0.101 |
| GAGCTAAC | -0.0046 |
| AGTCAGTC | -0.146 |
| ACCCCAAT | -0.053 |
| GCCGGCCA | -0.131 |
| ACTCAACC | 0.0477 |
| CGATGCCG | -0.223 |
